The supplement of paper PMC8728848
Some of the results follow.

Tests used:
Experiment in all cases: glycan array binding signal (z-score within array); higher = stronger binding
Conditions in all cases: glycan notation: IUPAC condensed, linker removed
[1] = target: Neu5Ac(a2-3)Gal6S(b1-4)[Fuc(a1-3)]GlcNAc
Summary of the method: (§1)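 From the Consortium for Functional Glycomics database, 3228 arrays were curated, keeping only those whose protein sequence was available. Binding is given as a within-array Z-score averaged across arrays sharing a protein sequence and across linkers. Negative Z-scores can be read as non-binding.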

Neu5Ac(a2-3)GalNAc = target: Neu5Ac(a2-3)GalNAc
Summary of the method: as §1

[2] = target: Neu5Ac(a2-3)GalNAc(b1-4)GlcNAc
Summary of the method: as §1

[3] = target: Neu5Ac(a2-3)[GalNAc(b1-4)]Gal(b1-4)Glc
Summary of the method: as §1

[4] = target: Neu5Ac(a2-3)[GalNAc(b1-4)]Gal(b1-4)GlcNAc
Summary of the method: as §1

[5] = target: Neu5Ac(a2-3)[Neu5Ac(a2-6)]GalNAc
Summary of the method: as §1

Neu5Ac(a2-6)Gal = target: Neu5Ac(a2-6)Gal
Summary of the method: as §1

Neu5Ac(a2-6)Gal(b1-4)Glc = target: Neu5Ac(a2-6)Gal(b1-4)Glc
Summary of the method: as §1

[6] = target: Neu5Ac(a2-6)Gal(b1-4)GlcNAc
Summary of the method: as §1

[7] = target: Neu5Ac(a2-6)Gal(b1-4)GlcNAc(b1-2)Man(a1-3)[Gal(b1-4)GlcNAc(b1-2)Man(a1-6)]Man(b1-4)GlcNAc(b1-4)GlcNAc
Summary of the method: as §1

[8] = target: Neu5Ac(a2-6)Gal(b1-4)GlcNAc(b1-2)Man(a1-3)[GlcNAc(b1-2)Man(a1-6)]Man(b1-4)GlcNAc(b1-4)GlcNAc
Summary of the method: as §1

[9] = target: Neu5Ac(a2-6)Gal(b1-4)GlcNAc(b1-2)Man(a1-3)[GlcNAc(b1-2)Man(b1-4)GlcNAc(b1-2)Man(a1-6)]Man(b1-4)GlcNAc(b1-4)GlcNAc
Summary of the method: as §1

[10] = target: Neu5Ac(a2-6)Gal(b1-4)GlcNAc(b1-2)Man(a1-3)[Neu5Ac(a2-6)Gal(b1-4)GlcNAc(b1-2)Man(a1-6)]Man(b1-4)GlcNAc(b1-4)GlcNAc
Summary of the method: as §1

[11] = target: Neu5Ac(a2-6)Gal(b1-4)GlcNAc(b1-2)Man(a1-6)[Gal(b1-4)GlcNAc(b1-2)Man(a1-3)]Man(b1-4)GlcNAc(b1-4)GlcNAc
Summary of the method: as §1

[12] = target: Neu5Ac(a2-6)Gal(b1-4)GlcNAc(b1-2)Man(a1-6)[GlcNAc(b1-2)Man(a1-3)]Man(b1-4)GlcNAc(b1-4)GlcNAc
Summary of the method: as §1

[13] = target: Neu5Ac(a2-6)Gal(b1-4)GlcNAc(b1-3)Gal(b1-4)GlcNAc
Summary of the method: as §1

[14] = target: Neu5Ac(a2-6)Gal(b1-4)GlcNAc(b1-3)Gal(b1-4)[Fuc(a1-3)]GlcNAc(b1-3)Gal(b1-4)[Fuc(a1-3)]GlcNAc
Summary of the method: as §1

[15] = target: Neu5Ac(a2-6)Gal(b1-4)GlcNAc6S
Summary of the method: as §1

Neu5Ac(a2-6)GalNAc = target: Neu5Ac(a2-6)GalNAc
Summary of the method: as §1

[16] = target: Neu5Ac(a2-6)GalNAc(b1-4)GlcNAc
Summary of the method: as §1

Neu5Ac(a2-8)Neu5Ac = target: Neu5Ac(a2-8)Neu5Ac
Summary of the method: as §1

[17] = target: Neu5Ac(a2-8)Neu5Ac(a2-3)Gal(b1-4)Glc
Summary of the method: as §1

[18] = target: Neu5Ac(a2-8)Neu5Ac(a2-3)[GalNAc(b1-4)]Gal(b1-4)Glc
Summary of the method: as §1

[19] = target: Neu5Ac(a2-8)Neu5Ac(a2-8)Neu5Ac
Summary of the method: as §1

[20] = target: Neu5Ac(a2-8)Neu5Ac(a2-8)Neu5Ac(a2-3)Gal(b1-4)Glc
Summary of the method: as §1

[21] = target: Neu5Ac(a2-8)Neu5Ac(a2-8)Neu5Ac(a2-3)[GalNAc(b1-4)]Gal(b1-4)Glc
Summary of the method: as §1

[22] = target: Neu5Ac(a2-8)Neu5Ac(a2-8)Neu5Ac(a2-8)Neu5Ac(a2-3)[GalNAc(b1-4)]Gal(b1-4)Glc
Summary of the method: as §1

[23] = target: Neu5Ac(b2-6)Gal(b1-4)GlcNAc
Summary of the method: as §1

Neu5Ac(b2-6)GalNAc = target: Neu5Ac(b2-6)GalNAc
Summary of the method: as §1

[24] = target: Neu5Ac9Ac(a2-6)Gal(b1-4)GlcNAc
Summary of the method: as §1

[25] = target: Neu5Gc(a2-3)Gal(b1-3)GlcNAc
Summary of the method: as §1

[26] = target: Neu5Gc(a2-3)Gal(b1-3)[Fuc(a1-4)]GlcNAc
Summary of the method: as §1

Neu5Gc(a2-3)Gal(b1-4)Glc = target: Neu5Gc(a2-3)Gal(b1-4)Glc
Summary of the method: as §1

[27] = target: Neu5Gc(a2-3)Gal(b1-4)GlcNAc
Summary of the method: as §1

[28] = target: Neu5Gc(a2-3)Gal(b1-4)[Fuc(a1-3)]GlcNAc
Summary of the method: as §1

[29] = target: Neu5Gc(a2-6)Gal(b1-4)GlcNAc
Summary of the method: as §1

Neu5Gc(a2-6)GalNAc = target: Neu5Gc(a2-6)GalNAc
Summary of the method: as §1

[30] = target: Neu5Gc(b2-6)Gal(b1-4)GlcNAc
Summary of the method: as §1

B1: Surfactant Protein D (rat); Neck + Carbohydrate Recognition Domain (NCRD) (Rattus norvegicus) (protein)
chain: MLLFLLSALVLLTQPLGYLEAEMKTYSHRTMPSACTLVMCSSVESGLPGRDGRDGREGPRGEKGDPGLPGAAGQAGMPGQAGPVGPKGDNGSVGEPGPKGDTGPSGPPGPPGVPGPAGREGALGKQGNIGPQGKPGPKGEAGPKGEVGAPGMQGSAGARGAGPKGERGVPGERGVPGNTGAAGSAGAMGPQGSPGARGPPGLKGDKGIPGDKGAKGESGLPDVASLRQQVEALQGQVQHLQAAFSQYKKVELFPNGQSVGEKIFKTAGFVKPFTEAQLLCTQAGGQLASPRSAAENAALQQLVVAKNEAAFLSMTDSKTEGKFTYPTGESLVYSNWAPGEPNDDGGSEDCVEIFTNGKWNDRACGEKRLVVCEF
glycan array binding signal (z-score) [1]: 0.061 | glycan array binding signal (z-score) (Neu5Ac(a2-3)GalNAc): -0.216 | glycan array binding signal (z-score) [2]: 0.09 | glycan array binding signal (z-score) [3]: -0.091 | glycan array binding signal (z-score) [4]: -0.157 | glycan array binding signal (z-score) [5]: -0.236 | glycan array binding signal (z-score) (Neu5Ac(a2-6)Gal): -0.229 | glycan array binding signal (z-score) (Neu5Ac(a2-6)Gal(b1-4)Glc): -0.161 | glycan array binding signal (z-score) [6]: -0.071 | glycan array binding signal (z-score) [7]: -0.126 | glycan array binding signal (z-score) [8]: -0.17 | glycan array binding signal (z-score) [9]: -0.085 | glycan array binding signal (z-score) [10]: 0.111 | glycan array binding signal (z-score) [11]: -0.176 | glycan array binding signal (z-score) [12]: -0.097 | glycan array binding signal (z-score) [13]: -0.105 | glycan array binding signal (z-score) [14]: -0.085 | glycan array binding signal (z-score) [15]: 0.308 | glycan array binding signal (z-score) (Neu5Ac(a2-6)GalNAc): 0.018 | glycan array binding signal (z-score) [16]: -0.027 | glycan array binding signal (z-score) (Neu5Ac(a2-8)Neu5Ac): -0.161 | glycan array binding signal (z-score) [17]: -0.191 | glycan array binding signal (z-score) [18]: -0.103 | glycan array binding signal (z-score) [19]: -0.167 | glycan array binding signal (z-score) [20]: -0.048 | glycan array binding signal (z-score) [21]: 0.016 | glycan array binding signal (z-score) [22]: 0.044 | glycan array binding signal (z-score) [23]: -0.13 | glycan array binding signal (z-score) (Neu5Ac(b2-6)GalNAc): -0.156 | glycan array binding signal (z-score) [24]: -0.179 | glycan array binding signal (z-score) [25]: -0.103 | glycan array binding signal (z-score) [26]: -0.125 | glycan array binding signal (z-score) (Neu5Gc(a2-3)Gal(b1-4)Glc): -0.156 | glycan array binding signal (z-score) [27]: -0.079 | glycan array binding signal (z-score) [28]: -0.088 | glycan array binding signal (z-score) [29]: -0.186 | glycan array binding signal (z-score) (Neu5Gc(a2-6)GalNAc): -0.219 | glycan array binding signal (z-score) [30]: -0.191
